According to a collection of fitness landscapes (doi:10.1126/science.1257360):
The list shows a part of the results.

B1: PhoQ; a variant is named by its letters at X, in order, P23837 (parent)
chain: MKKLLRLFFPLSLRVRFLLATAAVVLVLSLAYGMVALIGYSVSFDKTTFRLLRGESNLFYTLAKWENNKLHVELPENIDKQSPTMTLIYDENGQLLWAQRDVPWLMKMIQPDWLKSNGFHEIEADVNDTSLLLSGDHSIQQQLQEVREDDDDAEMTHSVAVNVYPATSRMPKLTIVVVDTIPVELKSSYMVWSWFIYVLSANLLLVIPLLWVAAWWSLRPIEALAKEVRELEEHNRELLNPATTRELTSLVRNLNRLLKSERERYDKYRTTLTDLTHSLKTPLXXLQXXLRSLRSEKMSVSDAEPVMLEQISRISQQIGYYLHRASMRGGTLLSRELHPVAPLLDNLTSALNKVYQRKGVNISLDISPEISFVGEQNDFVEVMGNVLDNACKYCLEFVEISARQTDEHLYIVVEDDGPGIPLSKREVIFDRGQRVDTLRPGQGVGLAVAREITEQYEGKIVAGESMLGGARMEVIFGRQHSAPKDE

Variants of: B1
Assay: enrichment ratio after two sorts for PhoP signalling (ratio (wild type AVST 3.29)); higher = more functional
Conditions: with PhoP (E. coli)

Row | Variant | enrichment ratio
1 | IQSM | ≤ 0.25
2 | FMIW | ≤ 0.25
3 | WGNF | ≤ 0.25
4 | RQEY | ≤ 0.25
5 | FLYL | ≤ 0.25
6 | FPHQ | ≤ 0.25
7 | VTEM | ≤ 0.25
8 | LPCQ | ≤ 0.25
9 | KHTQ | ≤ 0.25
10 | NKAT | ≤ 0.25
11 | MARW | ≤ 0.25
12 | KRGS | ≤ 0.25
13 | IIHC | ≤ 0.25
14 | VYVN | 0.45
15 | KFCN | ≤ 0.25
16 | VKWM | ≤ 0.25
17 | YRLE | ≤ 0.25
18 | GEMV | 5.64
19 | NPWF | ≤ 0.25
20 | LCVA | ≤ 0.25
21 | WRRD | ≤ 0.25
22 | SHTH | 0.595
23 | KVER | ≤ 0.25
24 | LMAS | ≤ 0.25

Row | Variant | enrichment ratio
25 | VARK | 0.646
26 | NWKV | ≤ 0.25
27 | VTTK | ≤ 0.25
28 | KLEL | ≤ 0.25
29 | RKCW | ≤ 0.25
30 | LMDM | ≤ 0.25
31 | MLLD | ≤ 0.25
32 | WYAS | ≤ 0.25
33 | DTLL | ≤ 0.25
34 | YHPA | ≤ 0.25
35 | HQSI | ≤ 0.25
36 | DGVC | ≤ 0.25
37 | CSFC | ≤ 0.25
38 | MGTL | 6.38
39 | VLLC | ≤ 0.25
40 | GLIA | ≤ 0.25
41 | LKCK | ≤ 0.25
42 | QDNM | ≤ 0.25
43 | HSWG | ≤ 0.25
44 | SFTT | ≤ 0.25
45 | RIRI | ≤ 0.25
46 | IKSV | ≤ 0.25
47 | DLYC | ≤ 0.25
48 | YDNC | ≤ 0.25

Row | Variant | enrichment ratio
49 | PRVK | ≤ 0.25
50 | IHER | ≤ 0.25
51 | SCAR | 4.56
52 | MHCT | ≤ 0.25
53 | CFIG | ≤ 0.25
54 | DEVK | ≤ 0.25
55 | FNQW | ≤ 0.25
56 | MMNF | ≤ 0.25
57 | TPFI | ≤ 0.25
58 | RFEA | ≤ 0.25
59 | WGCH | ≤ 0.25
60 | PRGI | ≤ 0.25
61 | HIVM | ≤ 0.25
62 | RGDE | ≤ 0.25
63 | HWTN | ≤ 0.25
64 | QEIE | ≤ 0.25
65 | HTDL | ≤ 0.25
66 | GDTG | ≤ 0.25
67 | KMHY | ≤ 0.25
68 | KNQM | ≤ 0.25
69 | WWPC | ≤ 0.25
70 | FGCW | ≤ 0.25
71 | PWRA | ≤ 0.25
72 | FQQH | ≤ 0.25

Row | Variant | enrichment ratio
73 | MKGW | ≤ 0.25
74 | QGRY | ≤ 0.25
75 | RTSY | ≤ 0.25
76 | WVIF | ≤ 0.25
77 | TYDQ | ≤ 0.25
78 | TCPA | ≤ 0.25
79 | IKHG | ≤ 0.25
80 | LDAY | ≤ 0.25
81 | YIIF | ≤ 0.25
82 | PVSA | ≤ 0.25
83 | VLDF | ≤ 0.25
84 | IQRC | ≤ 0.25
85 | MDHQ | ≤ 0.25
86 | HNLW | ≤ 0.25
87 | MPQN | ≤ 0.25
88 | HAKA | ≤ 0.25
89 | IASQ | ≤ 0.25
90 | VNVD | ≤ 0.25
91 | GHGS | ≤ 0.25
92 | YRMQ | ≤ 0.25
93 | IKVT | ≤ 0.25
94 | THGG | ≤ 0.25
95 | WLPF | ≤ 0.25
96 | MWVM | ≤ 0.25

Row | Variant | enrichment ratio
97 | GMRC | ≤ 0.25
98 | DYGW | ≤ 0.25
99 | NIPF | ≤ 0.25
100 | TREA | ≤ 0.25
101 | FEHY | ≤ 0.25
102 | MPYS | ≤ 0.25
103 | YRTR | ≤ 0.25
104 | HPFF | ≤ 0.25
105 | LGMM | 0.368
106 | FATI | 0.301
107 | TYLM | ≤ 0.25
108 | NPLI | ≤ 0.25
109 | PGMR | ≤ 0.25
110 | PKDI | ≤ 0.25
111 | TKHK | ≤ 0.25
112 | GKCC | ≤ 0.25
113 | TAQW | ≤ 0.25
114 | NRNQ | ≤ 0.25
115 | DEFI | ≤ 0.25
116 | MYDY | ≤ 0.25
117 | ETPA | ≤ 0.25
118 | IQPW | ≤ 0.25
119 | RDQQ | ≤ 0.25
120 | MNFR | ≤ 0.25

Row | Variant | enrichment ratio
121 | EVHG | ≤ 0.25
122 | LRKG | 0.731
123 | KFHD | ≤ 0.25
124 | NPLK | ≤ 0.25
125 | HAKL | ≤ 0.25
126 | GGTM | 1.63
127 | EDLV | ≤ 0.25
128 | WYAW | ≤ 0.25
129 | VRRH | ≤ 0.25
130 | TEQV | 11
131 | RFEM | ≤ 0.25
132 | LPMS | ≤ 0.25
133 | TIRI | 2.01
134 | FSNI | ≤ 0.25
135 | VLPW | ≤ 0.25
136 | NWQG | ≤ 0.25
137 | KGGL | ≤ 0.25
138 | TIIC | ≤ 0.25
139 | DVLG | ≤ 0.25
140 | VSTR | ≤ 0.25
141 | AFDQ | ≤ 0.25
142 | DYVT | ≤ 0.25
143 | EGYM | ≤ 0.25
144 | PQCR | ≤ 0.25

Row | Variant | enrichment ratio
145 | YWSF | ≤ 0.25
146 | DQYN | ≤ 0.25
147 | KYSH | ≤ 0.25
148 | FNRL | ≤ 0.25
149 | WVSS | ≤ 0.25
150 | ITGR | ≤ 0.25
151 | YSFA | ≤ 0.25
152 | MTPM | ≤ 0.25
153 | EMMA | ≤ 0.25
154 | NQAG | ≤ 0.25
155 | YYTL | ≤ 0.25
156 | PCMC | ≤ 0.25
157 | SMKA | ≤ 0.25
158 | MPFY | ≤ 0.25
159 | IQCY | ≤ 0.25
160 | GEPL | ≤ 0.25
161 | WFWT | ≤ 0.25
162 | SFNF | ≤ 0.25
163 | ALCD | 2.77
164 | WDKD | ≤ 0.25
165 | IKEV | ≤ 0.25
166 | ESSA | ≤ 0.25
167 | WMKL | ≤ 0.25
168 | KQIT | ≤ 0.25

Row | Variant | enrichment ratio
169 | IHSC | ≤ 0.25
170 | PKCC | ≤ 0.25
171 | LCDF | ≤ 0.25
172 | QTDC | 6.63
173 | YNRY | ≤ 0.25
174 | NWNC | ≤ 0.25
175 | NESQ | ≤ 0.25
176 | HDWL | ≤ 0.25
177 | PLTL | ≤ 0.25
178 | DWHE | ≤ 0.25
179 | KHWG | ≤ 0.25
180 | SCNF | 14.3
181 | ELRM | ≤ 0.25
182 | QESC | 5.96
183 | HEDK | ≤ 0.25
184 | HQGR | ≤ 0.25
185 | TAGG | 3.74
186 | DTSA | ≤ 0.25
187 | VRHK | ≤ 0.25
188 | GKAV | ≤ 0.25
189 | THQR | ≤ 0.25
190 | LIEF | ≤ 0.25
191 | INKI | ≤ 0.25
192 | NSQS | ≤ 0.25

Row | Variant | enrichment ratio
193 | PSSM | ≤ 0.25
194 | RGSN | ≤ 0.25
195 | HVPV | ≤ 0.25
196 | SRKS | ≤ 0.25
197 | WTKN | ≤ 0.25
198 | WRPQ | ≤ 0.25
199 | KRVP | ≤ 0.25
200 | LKEY | ≤ 0.25
201 | YMRP | ≤ 0.25
202 | DWFL | ≤ 0.25
203 | SMGE | 4.03
204 | WTVP | ≤ 0.25
205 | GCWN | ≤ 0.25
206 | SKNN | ≤ 0.25
207 | HHEF | ≤ 0.25
208 | YSSD | ≤ 0.25
209 | PRKE | ≤ 0.25
210 | APGH | ≤ 0.25
211 | ILSR | ≤ 0.25
212 | HMAM | ≤ 0.25
213 | FIPT | ≤ 0.25
214 | RKHH | ≤ 0.25
215 | FNIN | ≤ 0.25
216 | VNYN | ≤ 0.25

Row | Variant | enrichment ratio
217 | SPTD | ≤ 0.25
218 | SWIY | ≤ 0.25
219 | HPIE | ≤ 0.25
220 | NQKP | ≤ 0.25
221 | YDPW | ≤ 0.25
222 | GFVL | ≤ 0.25
223 | LFNY | ≤ 0.25
224 | TMVK | ≤ 0.25
225 | DTWM | ≤ 0.25
226 | GRQR | ≤ 0.25
227 | AYRF | ≤ 0.25
228 | TACR | 14.8
229 | AYRK | ≤ 0.25
230 | RFGK | ≤ 0.25
231 | VAKA | ≤ 0.25
232 | NSCN | ≤ 0.25
233 | DAQD | ≤ 0.25
234 | IHDL | ≤ 0.25
235 | HHCV | ≤ 0.25
236 | APSS | ≤ 0.25
237 | VDPD | ≤ 0.25
238 | DSIA | ≤ 0.25
239 | FKEG | ≤ 0.25
240 | PDCS | ≤ 0.25

Row | Variant | enrichment ratio
241 | VCYV | ≤ 0.25
242 | NPCN | ≤ 0.25
243 | PYLA | ≤ 0.25
244 | KRWC | ≤ 0.25
245 | IMCL | ≤ 0.25
246 | RHWQ | ≤ 0.25
247 | SLYP | 0.913
248 | PRSE | ≤ 0.25
249 | NHAA | ≤ 0.25
250 | DLYM | ≤ 0.25
251 | SYED | ≤ 0.25
252 | RQQG | ≤ 0.25
253 | QNRV | ≤ 0.25
254 | SKTR | ≤ 0.25
255 | FKYV | ≤ 0.25
256 | YALM | 12.7
257 | PKRN | ≤ 0.25
258 | LSGP | ≤ 0.25
259 | RGKS | ≤ 0.25
260 | WWLA | ≤ 0.25
261 | FRGP | ≤ 0.25
262 | KHNT | ≤ 0.25
263 | SAQQ | 3.36
264 | ACQL | 0.353

Row | Variant | enrichment ratio
265 | GHTF | ≤ 0.25
266 | LKNE | ≤ 0.25
267 | RENF | ≤ 0.25
268 | WPLW | ≤ 0.25
269 | NVKK | ≤ 0.25
270 | DGSR | 0.412
271 | NSHR | ≤ 0.25
272 | DMGK | ≤ 0.25
273 | RGKR | ≤ 0.25
274 | QPTQ | ≤ 0.25
275 | IENP | ≤ 0.25
276 | AGMP | ≤ 0.25
277 | IFEP | 0.883
278 | DSIE | ≤ 0.25
279 | AFPL | ≤ 0.25
280 | HETC | 3.38
281 | TPTD | ≤ 0.25
282 | QCAI | ≤ 0.25
283 | TMMG | 23.4
284 | ACCM | 14.9
285 | WDDL | ≤ 0.25
286 | TDEV | ≤ 0.25
287 | ILSF | ≤ 0.25
288 | VQKM | ≤ 0.25

Row | Variant | enrichment ratio
289 | KDCG | ≤ 0.25
290 | PILW | ≤ 0.25
291 | AAIP | ≤ 0.25
292 | DYQN | ≤ 0.25
293 | PLIN | ≤ 0.25
294 | SWWP | ≤ 0.25
295 | AQWQ | ≤ 0.25
296 | THFR | ≤ 0.25
297 | QGFG | 0.598
298 | GGAS | 0.78
299 | LREP | ≤ 0.25
300 | ELST | ≤ 0.25
301 | ASKE | ≤ 0.25
302 | VKCL | ≤ 0.25
303 | KIIT | ≤ 0.25
304 | YTLM | 9.3
305 | KGGF | ≤ 0.25
306 | YEVT | 0.273
